Values joined by “and” are separate entries in the source; they are usually repeats but may differ in a detail not shown here. Equal entries are not always repeated. In all, about 2,900 compounds were measured (“NF-kB SEAP reporter activity, fold change vs agonist alone”: median about 0.99, highest 2% from about 2.6 on). This is one part of the list.

These results are taken from the supplement of paper PMC10037445.

Assay [1] relates to RAW-Dual. In words: NF-kB SEAP reporter activity, fold change vs agonist alone; higher = enhanced NF-kB activity. In outline: (§1)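 Cytotoxic wells were those whose IncuCyte confluency was below 70% of agonist controls in both mask sets. The cells were RAW-Dual macrophages at 50,000 cells/well in DMEM on 384-well plates, dosed with 50 nL of library stock by pin tool, stimulated with a PRR agonist 1 h later, and kept at 37 °C, 5% CO2 for 20 hours. IRF and NF-κB reporter activity, as fold change over agonist-alone wells, came from supernatant read by QuantiLuc luminescence and QuantiBlue absorbance, respectively.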

Assay [2] deals with RAW-Dual. The assay can be described thus: NF-kB SEAP reporter activity, fold change vs agonist alone; cytotoxicity flag (confluency mask): not cytotoxic; higher = enhanced NF-kB activity. In outline:
as §1

The subject of assay [3] is RAW-Dual. The assay can be described thus: NF-kB SEAP reporter activity, fold change vs agonist alone; cytotoxicity flag (confluency mask): cytotoxic (confluency <70% of control); higher = enhanced NF-kB activity. In short, it runs like this:
as §1

[4] abbreviates: library stock concentration (final ~1000-fold dilution): 10 mM, cytotoxicity flag (confluency mask): not cytotoxic, agonist: Imiquimod (TLR7) […].
The mark [5] stands for this setting: agonist: ODN 1826 (TLR9) 0.5 ug/mL.
[6] abbreviates: agonist: Pam2CSK4 (TLR2/6) 0.1 ug/mL.
Setting [7] is: agonist: Pam3CSK4 (TLR2/1) 0.1 ug/mL.
The mark [8] stands for this setting: library stock concentration (final ~1000-fold dilution): 10 mM, cytotoxicity flag (confluency mask): not cytotoxic, agonist: MPLA (TLR4) […].

Consider `O=C1CCCC(=O)C1C(=O)c1ccc(C(F)(F)F)cc1[N+](=O)[O-]`, for which, in assay [1] (setting [4]), the “NF-kB SEAP reporter activity” value amounted to 0.868.
Turning to `O=C1CCCC(=O)C1C(=O)c1ccc(C(F)(F)F)cc1[N+](=O)[O-]` (library stock concentration (final ~1000-fold dilution): 10 mM), the “NF-kB SEAP reporter activity” value is 0.874 and 1.02 in assay [2] (agonist: LPS (TLR4) 0.1 ug/mL); 0.949 and 1.11 in assay [2] (setting [5]); 0.916 and 1.09 in assay [2] (setting [6]); 0.815 and 0.924 in assay [2] (setting [7]).
As for `OCc1ccccc1OC1OC(CO)C(O)C(O)C1O` (configuration not stated) (library stock concentration (final ~1000-fold dilution): 10 mM), the “NF-kB SEAP reporter activity” value in assay [2] (agonist: LPS (TLR4) 0.1 ug/mL) stood at 0.986; in assay [2] (setting [5]) it was 1.08; in assay [2] (setting [6]) it was 1.11; in assay [2] (setting [7]), 1.19.
As to `OCc1ccccc1OC1OC(CO)C(O)C(O)C1O` (configuration not stated), the “NF-kB SEAP reporter activity” value is 0.917 in assay [1] (setting [4]) and 1.04 in assay [1] (setting [8]).
`C=CC(=O)Nc1cccc(Oc2nc(Nc3ccc(N4CCN(C)CC4)cc3)nc3ccsc23)c1` (library stock concentration (final ~1000-fold dilution): 10 mM): the “NF-kB SEAP reporter activity” value in assay [3] (agonist: LPS (TLR4) 0.1 ug/mL) was 0.504; in assay [3] (setting [5]) it was 0.202; in assay [3] (setting [6]) it was 0.226; in assay [3] (setting [7]) it was 0.166.
Take `C=CC(=O)Nc1cccc(Oc2nc(Nc3ccc(N4CCN(C)CC4)cc3)nc3ccsc23)c1`: the “NF-kB SEAP reporter activity” value in assay [1] (library stock concentration (final ~1000-fold dilution): 10 mM, cytotoxicity flag (confluency mask): cytotoxic (confluency <70% of control), agonist: Imiquimod (TLR7) […]) came to 1.41; in assay [1] (library stock concentration (final ~1000-fold dilution): 10 mM, cytotoxicity flag (confluency mask): cytotoxic (confluency <70% of control), agonist: MPLA (TLR4) […]) it was 0.937.
As to `O=C(Nc1cnn2ccc(N3CCCC3c3cc(F)ccc3F)nc12)N1CCC(O)C1.O=S(=O)(O)O` (configuration not stated) (library stock concentration (final ~1000-fold dilution): 10 mM), the “NF-kB SEAP reporter activity” value is 0.889 in assay [2] (agonist: LPS (TLR4) 0.1 ug/mL), 0.861 in assay [2] (setting [5]), 1.03 in assay [2] (setting [6]) and 0.795 in assay [2] (setting [7]).
Turning to `O=C(Nc1cnn2ccc(N3CCCC3c3cc(F)ccc3F)nc12)N1CCC(O)C1.O=S(=O)(O)O` (configuration not stated), the “NF-kB SEAP reporter activity” value in assay [1] (setting [4]) was 1.05; in assay [1] (setting [8]), 0.956.
Regarding `CN(C)Cc1ccc(S(=O)(=O)n2ccc(/C=C/C(=O)NO)c2)cc1` (library stock concentration (final ~1000-fold dilution): 10 mM), the “NF-kB SEAP reporter activity” value came to 4.18 in assay [2] (agonist: LPS (TLR4) 0.1 ug/mL), 0.95 in assay [2] (setting [5]), 1.03 in assay [2] (setting [6]) and 0.94 in assay [2] (setting [7]).
With `CN(C)Cc1ccc(S(=O)(=O)n2ccc(/C=C/C(=O)NO)c2)cc1`, the “NF-kB SEAP reporter activity” value in assay [1] (setting [4]) amounted to 1.01; in assay [1] (setting [8]), 0.905.
Turning to `O=C(/C=C/c1ccc(O)c(O)c1)O[C@@H]1C[C@](O)(C(=O)O)C[C@@H](O)[C@H]1O` (library stock concentration (final ~1000-fold dilution): 10 mM), the “NF-kB SEAP reporter activity” value in assay [2] (agonist: LPS (TLR4) 0.1 ug/mL) turned out to be 0.847; in assay [2] (setting [5]), 0.883; in assay [2] (setting [6]), 0.901; in assay [2] (setting [7]), 0.768.
In the case of `O=C(/C=C/c1ccc(O)c(O)c1)O[C@@H]1C[C@](O)(C(=O)O)C[C@@H](O)[C@H]1O`, the “NF-kB SEAP reporter activity” value in assay [1] (setting [4]) turned out to be 0.896; in assay [1] (setting [8]), 1.01.
Turning to `C=CCc1ccccc1OCC(O)CNC(C)C.Cl` (configuration not stated) (library stock concentration (final ~1000-fold dilution): 10 mM), the “NF-kB SEAP reporter activity” value in assay [2] (agonist: LPS (TLR4) 0.1 ug/mL) is 1.12; in assay [2] (setting [5]), 1; in assay [2] (setting [6]), 0.881; in assay [2] (setting [7]), 0.752.
With `C=CCc1ccccc1OCC(O)CNC(C)C.Cl` (configuration not stated), the “NF-kB SEAP reporter activity” value is 1.07 in assay [1] (setting [4]) and 1.23 in assay [1] (setting [8]).
As for `Cc1ccc2nc(NC(=O)CSc3nc4c(c(=O)n3-c3ccccc3)SCC4)sc2c1`, the “NF-kB SEAP reporter activity” value was 0.595 in assay [1] (library stock concentration (final ~1000-fold dilution): 2 mM, cytotoxicity flag (confluency mask): not cytotoxic, agonist: Imiquimod (TLR7) […]) and 1.04 in assay [1] (library stock concentration (final ~1000-fold dilution): 2 mM, cytotoxicity flag (confluency mask): not cytotoxic, agonist: MPLA (TLR4) […]).
Turning to `Cc1ccc2nc(NC(=O)CSc3nc4c(c(=O)n3-c3ccccc3)SCC4)sc2c1` (library stock concentration (final ~1000-fold dilution): 2 mM), the “NF-kB SEAP reporter activity” value in assay [2] (agonist: LPS (TLR4) 0.1 ug/mL) stood at 1.21; in assay [2] (setting [5]) it was 1.09; in assay [2] (setting [6]), 1.13; in assay [2] (setting [7]), 1.04.
In the case of `N#C/C(=C\c1ccc(O)c(O)c1)C(=O)NCc1ccccc1` (library stock concentration (final ~1000-fold dilution): 10 mM), the “NF-kB SEAP reporter activity” value in assay [2] (agonist: LPS (TLR4) 0.1 ug/mL) was 0.947; in assay [2] (setting [5]) it was 0.542; in assay [2] (setting [6]) it was 0.672; in assay [2] (setting [7]), 0.664.
For the molecule `N#C/C(=C\c1ccc(O)c(O)c1)C(=O)NCc1ccccc1`, the “NF-kB SEAP reporter activity” value came to 0.824 in assay [1] (setting [4]) and 0.91 in assay [1] (setting [8]).
Regarding `CC(C)(Sc1cc(C(C)(C)C)c(O)c(C(C)(C)C)c1)Sc1cc(C(C)(C)C)c(OC(=O)CCC(=O)O)c(C(C)(C)C)c1`, the “NF-kB SEAP reporter activity” value turned out to be 0.522 in assay [1] (setting [4]) and 0.926 in assay [1] (setting [8]).
As to `CC(C)(Sc1cc(C(C)(C)C)c(O)c(C(C)(C)C)c1)Sc1cc(C(C)(C)C)c(OC(=O)CCC(=O)O)c(C(C)(C)C)c1` (library stock concentration (final ~1000-fold dilution): 10 mM), the “NF-kB SEAP reporter activity” value came to 1.16 in assay [2] (agonist: LPS (TLR4) 0.1 ug/mL), 0.568 in assay [2] (setting [5]), 0.26 in assay [2] (setting [6]) and 0.382 in assay [2] (setting [7]).
`Cn1cc(-c2ccc3c(c2)CCN3C(=O)Cc2cccc(C(F)(F)F)c2)c2c(N)ncnc21` (library stock concentration (final ~1000-fold dilution): 10 mM): the “NF-kB SEAP reporter activity” value amounted to 0.53 in assay [2] (agonist: LPS (TLR4) 0.1 ug/mL), 0.969 in assay [2] (setting [5]), 0.377 in assay [2] (setting [6]) and 0.345 in assay [2] (setting [7]).
For `Cn1cc(-c2ccc3c(c2)CCN3C(=O)Cc2cccc(C(F)(F)F)c2)c2c(N)ncnc21`, the “NF-kB SEAP reporter activity” value in assay [1] (setting [4]) came to 0.247; in assay [1] (setting [8]), 0.909.
As for `Oc1cccc(-c2nc(N3CCOCC3)c3oc4ncccc4c3n2)c1`, the “NF-kB SEAP reporter activity” value in assay [1] (setting [4]) turned out to be 2.46; in assay [1] (setting [8]), 2.44.
For `Oc1cccc(-c2nc(N3CCOCC3)c3oc4ncccc4c3n2)c1` (library stock concentration (final ~1000-fold dilution): 10 mM), the “NF-kB SEAP reporter activity” value in assay [2] (agonist: LPS (TLR4) 0.1 ug/mL) amounted to 4.71; in assay [2] (setting [5]), 0.369; in assay [2] (setting [6]), 0.849; in assay [2] (setting [7]), 1.34.
The corresponding values for `CC(Cc1cc2c(c(C(N)=O)c1)N(CCCO)CC2)NCCOc1ccccc1OCC(F)(F)F` (configuration not stated) (library stock concentration (final ~1000-fold dilution): 10 mM) are 1.23, 0.852, 1.02 and 1.15.
For the molecule `CC(Cc1cc2c(c(C(N)=O)c1)N(CCCO)CC2)NCCOc1ccccc1OCC(F)(F)F` (configuration not stated), the entries for the “NF-kB SEAP reporter activity” value in assay [1] (setting [4]) and in assay [1] (setting [8]) were 0.856 and 1.03, respectively.
